# Several values for one entry are separate records, joined by “and”; a condition that tells them apart may be missing. Equal entries are not always repeated. ± gives the standard deviation of the averaged measurements. Some of the results follow. Repeats are few or missing, and single values can be far off.
# Tested on: SARS-CoV-2 nsp3 SARS-unique domain core (SUD-core, nsp3 residues 413-676)
# Assay: apparent dissociation constant Kd (single-concentration BLI fit); higher = weaker binding
# Details: 100 µM; 25 °C
row,SMILES,apparent dissociation constant Kd
1,COc1cc(Nc2ncc3c(n2)-c2ccc(Cl)cc2C(c2c(F)cccc2OC)=NC3)ccc1C(=O)O,508 µM
2,CSC[C@H]1O[C@@H](n2cnc3c(N)ncnc32)[C@H](O)[C@@H]1O,104 µM
3,CCCCCCCC/C=C\CCCCCCCC(=O)NCC(=O)O,152 µM
4,O=c1c(O)c(-c2ccc(O)c(O)c2)oc2cc(O)cc(O)c12,16.7 µM
5,OC1CCC(Nc2ncc3nc(Nc4c(F)cc(F)cc4F)n([C@H]4CCOC4)c3n2)CC1 (some centres undefined),858 µM
6,CC1=C(CC(=O)O)c2cc(F)ccc2/C1=C\c1ccc(C(C)C)cc1,3030 µM
7,Cc1ccc2c(Nc3ccc(Cl)cc3)nccc2c1Nc1ncccc1-c1ncnc2nc[nH]c12,295 µM
8,COc1ccc(C(OC[C@H]2O[C@@H](n3ccc(NC(C)=O)nc3=O)C[C@@H]2O)(c2ccccc2)c2ccc(OC)cc2)cc1,3490 µM
9,COc1cccc(Nc2nc(NCC3CCCO3)c3ccccc3n2)c1 (centres undefined),3710 µM
10,Cn1cnc([N+](=O)[O-])c1Sc1ncnc2nc[nH]c12,7080 ± 7500 µM
11,Cn1c(=O)c2[nH]cnc2n(C)c1=O,121 µM
12,Cn1c(=N)ccn([C@@H]2O[C@H](CO)[C@@H](O)[C@H]2O)c1=O,111 µM
13,Nc1nc(Nc2ccc3c(c2)CC[C@@H](N2CCCC2)CC3)nn1-c1cc2c(nn1)-c1ccccc1CCC2,15400 µM
14,Cn1cnc([N+](=O)[O-])c1C[N+](C)(C)C/C=C/C(=O)Nc1cc2c(Nc3ccc(Cl)c(Br)c3)ncnc2cn1,3500 µM
15,Nc1ncnc2c1ncn2[C@@H]1O[C@H](CO)[C@@H](O)[C@@H]1O,45.8 µM
16,Nc1nc(F)nc2c1ncn2[C@@H]1O[C@H](COP(=O)(O)O)[C@@H](O)[C@@H]1O,187 µM
17,CC(C)Nc1cc(-c2c[nH]c(C(=O)N[C@H](CO)c3cccc(Cl)c3)c2)c(Cl)cn1,44.7 µM and 93 µM
18,CN1CCN(c2ccc(C(=O)Nc3cc(-c4cccc(NS(=O)(=O)c5ccccc5)c4)[nH]n3)cc2)CC1,72.5 µM
19,C=CC(=O)Nc1cccc(-c2cccc3cnc(Nc4ccc(N5CCN(CCO)CC5)c(F)c4F)nc23)c1,6860 µM
20,C=CC(=O)N[C@H]1C=C(C)c2c(-c3cnc4ccccc4c3)c3c(N)ncnc3n2C1,840 µM

row,SMILES,apparent dissociation constant Kd
1,[N-]=[N+]=N[C@]1(CO)O[C@@H](n2ccc(=O)[nH]c2=O)[C@@H](O)[C@@H]1O,9710 µM
2,CN(C)c1ncnc2c1ncn2[C@@H]1O[C@H](CO)[C@@H](N)[C@H]1O,65.2 µM
3,CN1CCN(c2nc(C3=C(c4c[nH]c5ccccc45)C(=O)NC3=O)c3ccccc3n2)CC1,1020 µM
4,COc1cc(OC)cc(N(CCNC(C)C)c2ccc3ncc(-c4cnn(C)c4)nc3c2)c1,1650 µM
5,O=C(NOCC(O)CO)c1cc(Br)c(F)c(F)c1Nc1ccc(I)cc1F (centres undefined),1620 µM
6,CC(C)=CCC/C(C)=C/CC/C(C)=C/C=C/C(C)=C/C(=O)O,178 µM
7,CCCS(=O)(=O)Nc1ccc(F)c(-n2cc(-c3cncnc3)c3nc(N(C)C4CCN(CC)CC4)ccc32)c1F,20.6 µM
8,CN(C)C(=O)/C(C#N)=C/c1ccc(-c2nc3cnc4[nH]ccc4c3n2C2CCCCC2)o1,3210 µM
9,C=CC(=O)Nc1cccc(Nc2nc(Nc3ccc(NC4CN(CCF)C4)cc3OC)ncc2C(F)(F)F)c1,1820 µM
10,N#CC(=C(/N)Sc1ccccc1N)/C(C#N)=C(\N)Sc1ccccc1N,169 µM
11,CCOC(=O)c1cnc2ccc(-c3cncc(NS(=O)(=O)c4ccccc4)c3)cn12,1780 µM
12,Nc1ncnc2c1ccn2[C@@H]1O[C@H](CO)[C@@H](O)[C@H]1O,302 µM
13,O=c1[nH]cnc2c1ncn2[C@@H]1O[C@H](CO)[C@@H](O)[C@H]1O,148 µM
14,Cc1cn([C@H]2C[C@H](O)[C@@H](CO)O2)c(=O)nc1N,89.9 µM
15,CNC(=O)c1ccccc1Oc1nc(Nc2cc(OC)c(OC)c(OC)c2)ncc1Br,673 µM
16,CC(C)n1cnc2c(NCc3nc4c(F)c(F)ccc4[nH]3)nc(N3CCCC[C@H]3CCO)nc21,466 µM
17,CCOc1cc(N2CCC(O)CC2)ccc1Nc1ncc2c(n1)N(C)c1ccccc1C(=O)N2C,8200 µM
18,COc1cc(N2CCOCC2)ccc1Nc1ncc(Cl)c(Nc2ccccc2NS(C)(=O)=O)n1,1430 µM
19,Cc1c(Br)c(Br)c2c3c1nc(N1CCNCC1)n3CCC2,85 µM
